Laboratory results reported in PubChem BioAssay AID894 (National Center for Advancing Translational Sciences (NCATS), 2007).
Values joined by “and” are separate entries in the source; they are usually repeats but may differ in a detail not shown here. Equal entries are not always repeated. In all, about 150,000 compounds went through this assay and about 6,500 (4.3%) were called active. This list was built around the results that the source calls inconclusive (neither active nor inactive); the mix of calls is not that of the screen. Calls follow the shape of the dose curve; as a rule, active = well fitted inhibition curve with a large enough effect (not every such curve was filed as active); inconclusive = small, poorly fitted or top-dose-only effect, or another doubt; inactive = no such curve, though single readings can be large or run the other way. Potencies of inconclusive entries are doubtful fits and often do not repeat.

What follows are compounds tested against 15-hydroxyprostaglandin dehydrogenase [NAD(+)] (Homo sapiens) (UniProt P15428) (assay: qHTS Assay for Inhibitors of HPGD (15-Hydroxyprostaglandin Dehydrogenase)). Conditions: purified HPGD, NADH fluorescence kinetic, PGE2 substrate; activity change, negative = inhibition: stronger effect = lower value.
Chain of UniProt P15428 (P15428 whole entry, looked up): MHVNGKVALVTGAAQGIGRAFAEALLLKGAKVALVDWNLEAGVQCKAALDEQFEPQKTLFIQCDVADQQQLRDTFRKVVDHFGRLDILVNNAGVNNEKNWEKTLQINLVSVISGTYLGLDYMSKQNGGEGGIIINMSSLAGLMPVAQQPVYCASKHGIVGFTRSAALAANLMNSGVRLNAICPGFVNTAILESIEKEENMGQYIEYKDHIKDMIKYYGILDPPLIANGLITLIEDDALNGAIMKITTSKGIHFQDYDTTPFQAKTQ
In short: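 20 nM HPGD preincubated 15 min at room temperature with compound in 50 mM Tris-HCl pH 8, 0.01% Tween 20. Started with 1 mM NAD+ and 30 uM prostaglandin E2; NADH fluorescence (360/450 nm) read 5 times over 30-s intervals, last minus first.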
% is scaled to controls: 0 for no effect and ±100 for the full control effect; potency is read from the fitted curve at half-maximal effect; tags tell the direction and shape of the fitted curve.

Potency, active:
O=C(NNc1c(Cl)cc(Cl)cc1Cl)C1CCC1 31.6 µM
COC(=O)c1cc(C(=O)Nc2ccc(S(=O)(=O)NC(C)(C)C)cc2)cc([N+](=O)[O-])c1 17.8 µM
S=C1NC(c2cccs2)=CC(c2ccc(Br)cc2)N1 (stereo not given) 31.6 µM
O=C(Nc1nc2c(s1)CCCC2)c1ccc(Br)s1 20 µM
COc1cc(OC)cc(-c2nnc(Sc3ccc(C=O)cc3[N+](=O)[O-])o2)c1 14.1 µM
CCN(CC)c1ccc(NC(=O)CSc2ccsc2[N+](=O)[O-])c(C)c1 12.6 µM
CC(C)NC(=O)CSCc1c(Cl)cccc1Cl 14.1 µM
Cn1c(N)c(C(=O)COC(=O)Cn2cc(C(F)(F)F)ccc2=O)c(=O)n(C)c1=O 15.8 µM
COc1cc(NS(=O)(=O)c2ccc(NC(=S)NC(=O)c3sc4cc(F)ccc4c3Cl)cc2)nc(OC)n1 15.8 µM
COC(=O)/C(=C1/Oc2cc(C)oc(=O)c2S1)C(F)(F)F 7.94 µM
CC(C)c1ccc(C(=O)CSc2ncn[nH]2)cc1 31.6 µM
Cn1nnnc1SCC(=O)Nc1c(Cl)cccc1Cl 22.4 µM
COc1ccc(Cc2nnc(N/N=C/c3ccc(O)cc3O)[nH]c2=O)cc1OC 31.6 µM

Potency, inconclusive:
O=C1C=CC2(OCCCO2)C(Br)=C1CO 39.8 µM [inhibitor, single point]
CCCCNc1cc(C(=O)O)cc(S(N)(=O)=O)c1Oc1ccccc1 15.8 µM [inhibitor, partial curve, poor fit] and 28.2 µM [inhibitor, partial curve] and 14.1 µM [inhibitor, partial curve]
COc1ccc(Cc2nc3c4c(ncn3n2)Oc2ccc3ccccc3c2C4c2ccc(OC)c(OC)c2)cc1 (stereo not given) 14.1 µM [inhibitor, partial curve]
CCCCCC(=O)Nc1cccc(-c2nc3ncccc3o2)c1 20 µM [inhibitor, partial curve]
O=C1CC(c2ccc(F)cc2)Cc2nc(N3CCc4ccccc43)ncc21 (stereo not given) 5.01 µM [inhibitor, partial curve]
O=C(NCCN1CCN(C(=O)c2cc3ccccc3oc2=O)CC1)c1cc2ccccc2oc1=O 31.6 µM [inhibitor, partial curve]
Cc1cnc(C)c(N2CCC(C(=O)NCc3ccco3)CC2)n1 25.1 µM [inhibitor, single point]
Cc1ccc(C2C3=C(CC(C)(C)CC3=O)N(CCN3CCOCC3)C3=C2C(=O)CC(C)(C)C3)cc1 15.8 µM [inhibitor, partial curve]
Cc1cc(/C=N/NC(N)=S)c(C)n1-c1ccc(Cl)c(Cl)c1 20 µM [inhibitor, single point]
O=C(CSc1ccccc1)N1CCN(c2ccccc2)CC1 3.16 µM [inhibitor, single point]
N#Cc1nc(-c2ccccc2)oc1NCc1ccco1 14.1 µM [inhibitor, partial curve]
Cc1ccc(-c2csc(N(CC3CCCO3)C(=O)c3ccco3)n2)cc1 (stereo not given) 22.4 µM [inhibitor, partial curve, poor fit]
CC(C)N=C(NS(=O)(=O)c1ccccc1)C(Cl)(Cl)Cl 35.5 µM [inhibitor, partial curve]
Cc1coc2cc3oc(=O)c(Cc4ccccc4)c(C)c3cc12 28.2 µM [inhibitor, single point]
CC(=O)Nc1ccc(S(=O)(=O)NNC(=O)c2cc3c4ccccc4n(C)c3s2)cc1 15.8 µM [inhibitor, partial curve]
CCc1cc2c(CN3CCN(CCO)CC3)cc(=O)oc2cc1O 11.2 µM [inhibitor, partial curve]
CN1CC=C2C(C#N)=C(N)C(C#N)(C#N)[C@H](c3ccoc3)[C@H]2C1 28.2 µM [inhibitor, partial curve]
CCOC(=O)c1ccc(Nc2ncnc3nc[nH]c23)cc1 20 µM [inhibitor, partial curve]
O=c1c2c([nH]c3ccccc13)C(=C1CCCC1)CC2 28.2 µM [inhibitor, partial curve]
Cc1cc(C)cc(N(CC(=O)Nc2ccc(-c3nc4ccc(C)cc4s3)cc2)S(C)(=O)=O)c1 31.6 µM [inhibitor, partial curve]
COc1ccc(-c2nc3ccccc3c(=O)o2)cc1OC 31.6 µM [inhibitor, partial curve]
Cc1cc(C)c(C#N)c(N2CCN(Cc3ccc4c(c3)OCO4)CC2)n1 28.2 µM [inhibitor, single point]
O=C(N/N=C/c1ccc2cccc(OCc3ccccc3)c2n1)c1ccc(Br)cc1 3.55 µM [inhibitor, partial curve]
CN(C)S(=O)(=O)c1cccc(NC(=O)c2cc(-c3cccs3)nc3ccccc23)c1 31.6 µM [inhibitor, partial curve]
COCC(=O)N1CCC2(CCCN(c3ccccn3)C2)CC1 31.6 µM [inhibitor, partial curve]
CNc1nnc(-c2ccncc2)s1 0.708 µM [inhibitor, single point]
CNC(=O)c1cc(C)c(-c2ccccc2)s1 17.8 µM [inhibitor, partial curve]
COCC(=O)Nc1ccc(Nc2ccccc2)cc1 14.1 µM [inhibitor, partial curve, poor fit]
Nc1c(C(=O)Nc2ccc(Br)cc2)sc2nc(-c3ccco3)ccc12 14.1 µM [inhibitor, partial curve]
Cc1ccc2nc(SCc3cccc([N+](=O)[O-])c3)nc(C)c2c1 14.1 µM [inhibitor, partial curve]
CS(=O)(=O)c1sc2nc(-c3ccccc3)cc(-c3ccccc3)c2c1N 28.2 µM [inhibitor, partial curve]
CC(C)Cn1c(CCC(=O)O)ccc1-c1cccs1 31.6 µM [inhibitor, partial curve]
CC(C)n1c(=S)[nH]c2ccccc21 25.1 µM [inhibitor, single point]
CCN(CC)C(=O)c1cc2c(=O)oc3ccccc3c2s1 14.1 µM [inhibitor, partial curve]
Cc1cc2ccccc2c(=O)n1CC(=O)NCC(=O)N(C)C1CCCCC1 31.6 µM [inhibitor, partial curve]
N#Cc1c(N)oc(-c2ccc3c(c2)OCO3)c1-c1ccc2c(c1)OCO2 31.6 µM [inhibitor, partial curve]
COc1ccc(NC(=O)CSC2=C(C#N)C(c3ccco3)C3=C(CCCC3=O)N2)c(OC)c1 (stereo not given) 28.2 µM [inhibitor, partial curve]
CC(C)CNC(=S)Nc1ccc(S(N)(=O)=O)cc1 25.1 µM [inhibitor, partial curve]
CCCn1c2ccccc2c2cc(C(=O)O)ccc21 22.4 µM [inhibitor, partial curve]

Activity change, negative = inhibition, inactive:
CCC/C=C(\CCC)C(NS(=O)(=O)c1ccccc1)c1ccc(C(F)(F)F)cc1 (stereo not given) -15.6%
CCN(CC)c1ccc(C(=O)NC(=S)Nc2cc(S(=O)(=O)N3CCOCC3)ccc2-n2cncn2)cc1 -13%
Cc1noc(C)c1-c1nccc(-n2ccnc2)n1 -9.6%
O=C(CN1C(=O)c2cccc3cccc(c23)C1=O)N1CCN(c2ccccn2)CC1 -2.18%
O=C(CSc1nnc(Nc2ccccc2F)s1)Nc1cccc(S(=O)(=O)N2CCCCC2)c1 -9.95%
CCN(CC)C(=O)NC(c1ccc(C)c(F)c1)C(Cl)(Cl)Cl (stereo not given) -8.58%
O=C(CSc1nc2ccccc2[nH]1)NC1CCCc2ccccc21 (stereo not given) -7.7%
O=C(Oc1ccccc1)c1ccccc1OS(=O)(=O)c1ccccc1 -13.3%
O=c1[nH]c(CN2CCCCC2)nc2ccccc12 -7.75%
O=C(O)C1C2CCC(O2)C1C(=O)Nc1ccc(O)cc1 (stereo not given) -15.1%
COCC(=O)N1CCc2nc(COc3ccccc3)c3c(c2C1)CO[C@@H](C)C3 -9.91%
COc1cccc(C(=O)N2CCCc3ccccc32)c1 -8.3%
CC(C)Oc1ccc(C(=O)Nc2ccc(Cl)c(S(=O)(=O)Nc3ccc(Cl)cc3)c2)cc1 -26.4%
COc1ccc(N2CC(C(=O)Nc3nnc(SCc4ccccn4)s3)CC2=O)cc1 (stereo not given) -29.6%
CCC/C=C(\CCC)C(NC(=O)c1ccccc1)c1ccccc1 (stereo not given) -10.7%
O=C(CN(Cc1ccco1)C(=O)CNS(=O)(=O)c1ccc(F)cc1)NCCc1ccccc1 -6.91%
Cc1ccc(NC2OC(C(O)CO)C(O)C2O)cc1[N+](=O)[O-] (stereo not given) -25.6%
Nc1ncnc2nn([C@H]3O[C@@H](CO)[C@@H](O)[C@H]3O)nc12 -13.2%
